In PubChem BioAssay AID1345083 (National Center for Advancing Translational Sciences (NCATS), 2018):
Values joined by “and” are separate entries in the source; they are usually repeats but may differ in a detail not shown here. Equal entries are not always repeated. About 6,200 (6.6%) of roughly 94,000 compounds were called active. This list was built around the results that the source calls inconclusive (neither active nor inactive); the mix of calls is not that of the screen. Calls come from the whole dose curve; as a rule, active = well fitted inhibition curve with a large enough effect; inconclusive = small, poorly fitted or top-dose-only effect; inactive = flat fitted curve, though single readings scatter. Potencies of inconclusive entries are doubtful fits and often do not repeat.

Assay: Cytotoxic Profiling in HEK 293 Cell Line of Diverse Libraries Using Quantitative High-Throughput Screening; note: nearly all actives have a fitted effect of over 60% in size
Conditions: HEK 293 viability, ATP luminescence (CellTiter-Glo), 48-72 h; series mostly up to 115 µM
In short: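 250 HEK 293 cells/well; compound by pintool; incubated 48 or 72 hr at 37 degree Celsius; CellTiter-Glo added, 10 min RT, luminescence imaged.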
Potency is the fitted concentration of half-maximal effect; tags give direction and shape of the fitted curve.

Row | SMILES | Potency
1 | O=C(O)c1cc2c(s1)CCN(C(=O)c1ccc(F)cc1)C2 | inactive
2 | COCCNC(=O)CCc1c(C)nn(-c2cccc(C)c2)c1Oc1ccccc1C | inconclusive: 79.4 µM [inhibitor, partial curve, poor fit]
3 | CCOC(=O)[C@H]1C[C@]2(CCCCN(CCO)C2=O)N(C(=O)c2cccc(C#N)c2)[C@H]1c1ccco1 | inactive
4 | O=C1CCCCC(C(=O)NCc2ccco2)N1 (stereo not drawn) | inactive
5 | CC(=O)Nc1ccc(-c2ccc(=O)n3c2[C@@H]2C[C@@H](CN(C(=O)Nc4cccc(C#N)c4)C2)C3)cc1 | active: 31.6 µM
6 | Cc1ncc2n1C(=O)N(C1CCN(Cc3ccc(F)cc3)CC1)C2 | inactive and inconclusive: 89.1 µM [inhibitor, partial curve]
7 | COC1CCN(c2ccc(-c3nc(COc4ccccc4)no3)cn2)CC1 | inconclusive: 22.4 µM [inhibitor, partial curve, poor fit]
8 | COC(=O)C1=CN(CC(=O)Nc2cccc(OC)c2)S(=O)(=O)N=C1C | inactive
9 | O=C(c1ccc2[nH]ccc2c1)N1CCN(C(=O)c2nnn3c2COC(c2ccccc2)C3)CC1 (stereo not drawn) | active: 79.4 µM
10 | Cc1nc2n(c1C(=O)NCCc1ccccc1)CCC(Nc1ccc(F)cc1)C2 (stereo not drawn) | inconclusive: 100 µM [inhibitor, partial curve, poor fit]
11 | COc1ccc(NC(=O)N2CCCCC2c2nc(-c3cnccn3)n[nH]2)cc1 (stereo not drawn) | inactive
12 | O=C(CCC1CCN(C(=O)[C@H]2C[C@@H]3C=C[C@H]2C3)CC1)N1CCC(Cc2ccccc2)CC1 | active: 44.7 µM
13 | COCCc1nncn1C1CCN(C(=O)c2ccc(C)s2)CC1 | inactive
14 | CN(C)C(=O)c1cccnc1OC1CCN(C(=O)c2ccccc2Br)C1 (stereo not drawn) | inactive
15 | O=C(c1nc2c(o1)CCN(Cc1cccc(F)c1)CC2)N1CCOCC1 | inconclusive: 100 µM [inhibitor, partial curve]
16 | O=C(NC1CC1)c1ccccc1OC1CN(Cc2ccc(F)cc2Cl)C1 | inconclusive: 50.1 µM [inhibitor, partial curve, poor fit]
17 | COC(=O)N(C)Cc1cccc(N2CCN(C(=O)c3c(Cl)cccc3Cl)CC2)c1F | inconclusive: 56.2 µM [inhibitor, partial curve, poor fit]
18 | COc1ccc(-c2cc3c(=O)n(CCNC(=O)c4n[nH]c5c4CCCC5)ccn3n2)cc1 | inactive
19 | NC(=O)c1cccc(CN2CCC3(CC2)CC(c2ccccc2)=NO3)c1 | inconclusive: 44.7 µM [inhibitor, partial curve, poor fit]
20 | O=C(Nc1ccc2[nH]ccc2c1)C1=NO[C@@H]2CN(c3ccccc3)C[C@H]12 | inconclusive: 100 µM [inhibitor, partial curve]
21 | CN1CCCC2(CCN(c3ccc(C#N)cn3)C2)C1=O (stereo not drawn) | inactive
22 | Fc1ccc(CN2CCCC3(CC(c4cccc(C(F)(F)F)c4)=NO3)C2)cc1 (stereo not drawn) | inconclusive: 35.5 µM [inhibitor, partial curve, poor fit]

Row | SMILES | Potency
23 | Cc1cc(CN2CCC(CO)(Cc3ccccc3Cl)CC2)cc(C)c1O | inconclusive: 50.1 µM [inhibitor, partial curve, poor fit]
24 | Cn1ncc2c(C(=O)NC3CCC3)cc(-c3ccccc3F)nc21 | inactive
25 | O=C(c1ccccc1F)N1CCCC(c2nn(-c3ccccn3)c(=O)[nH]2)C1 (stereo not drawn) | inconclusive: 100 µM [inhibitor, single point]
26 | COc1ccccc1Nc1ccnc(N2CCCC(C(=O)NCc3ccc(F)cc3)C2)n1 (stereo not drawn) | active: 14.1 µM
27 | O=[S+]([O-])(Nc1ccccc1)c1ccc2c(c1)OCCN(Cc1ccc(F)cn1)C2 | inconclusive: 100 µM [inhibitor, partial curve, poor fit]
28 | O=C(c1ccc(C(F)(F)F)cc1)N1CCn2c(nn(-c3ccncc3)c2=O)C1 | inconclusive: 10 µM [inhibitor, full curve, poor fit]
29 | CCc1nc(-c2ccc(OC3CCN(C(=O)Cc4ccccc4F)C3)cc2)no1 (stereo not drawn) | inconclusive: 50.1 µM [inhibitor, partial curve, poor fit]
30 | O=C([C@@H]1OCCN(C2CC2)[C@H]1c1ccccc1)N1CCC(Cc2ccccc2)CC1 | inconclusive: 50.1 µM [inhibitor, partial curve, poor fit]
31 | O=C(c1cccc(OC2CN(Cc3ccc(F)cc3F)C2)c1)N1CCCC1 | inconclusive: 50.1 µM [inhibitor, partial curve, poor fit]
32 | C#CCNC(=O)[C@@H]1CCCN1c1nccc(Nc2ccccc2OC)n1 | inactive
33 | O=C1CC2(CCN(CC3CCCC3)C2)Nc2ccccc2N1 (stereo not drawn) | inactive
34 | COc1ccc(C(=O)NC2CCN(c3cc(-c4ccccc4)[nH]n3)CC2)cc1F | inconclusive: 39.8 µM [inhibitor, single point]
35 | CCNC(=O)N1CCC(c2nnc(CN3CCCC3)n2CC)CC1 | inactive
36 | COc1ccc(CCNC(=O)c2ccc3nnc(C4CCCC4)n3c2)cc1 | inconclusive: 79.4 µM [inhibitor, partial curve]
37 | Cn1c(C(=O)N2CCNc3cnc(Nc4cccc(C(F)(F)F)c4)nc3C2)cc2ccccc21 | active: 39.8 µM
38 | CS(=O)(=O)N1C[C@H]2CCN(C(=O)c3cc(F)ccc3F)C[C@H]21 | inactive
39 | Cc1ncc2n1C(=O)N(C1CCN(Cc3ccc(N(C)C)cc3)CC1)C2 | inactive and inconclusive: 79.4 µM [inhibitor, partial curve, poor fit]
40 | CC1(C)[C@H]2CC[C@@H](CNC(=O)c3ccccn3)[C@@H]1C2 | inconclusive: 100 µM [inhibitor, partial curve]
41 | COc1ccc(-c2ccc3nc(-c4cc(F)cc(F)c4F)oc3c2)c(OC)c1OC | inconclusive: 31.6 µM [inhibitor, full curve, poor fit]
42 | CC(C)c1ccc(CN2CC[C@@H]3OCC(=O)N(C(C)C)[C@H]3CC2)cc1 | inconclusive: 39.8 µM [inhibitor, partial curve, poor fit]
43 | CS(=O)(=O)Nc1ccc(C2(C(=O)NCc3ccc(Cl)cc3)CCCCC2)cc1 | inconclusive: 50.1 µM [inhibitor, partial curve, poor fit]
